Laboratory results: patent US20230113563A1 (SYSTIMMUNE, published 2023)

Molecular target: EGFR on tumor cells (MDA-MB-231, HeLa) (UniProt P00533)
Experiment: cell-based or functional assay

B1: SI-55E3 (other)
heavy: DIVLTQSPASLAVSLGQRATISCKASQSVDFDGDSYMNWYQQKPGQPPKVLIYAASNLESGIPARFSGSGSGTDFTLNIHPVEEEDAATYYCQQSNEDPWTFGGGTKLEIKRTVAAPSVFIFPPSDEQLKSGTASVVCLLNNFYPREAKVQWKVDNALQSGNSQESVTEQDSKDSTYSLSSTLTLSKADYEKHKVYACEVTHQGLSSPVTKSFNRGEC
light: DIVLTQSPASLAVSLGQRATISCKASQSVDFDGDSYMNWYQQKPGQPPKVLIYAASNLESGIPARFSGSGSGTDFTLNIHPVEEEDAATYYCQQSNEDPWTFGGGTKLEIKRTVAAPSVFIFPPSDEQLKSGTASVVCLLNNFYPREAKVQWKVDNALQSGNSQESVTEQDSKDSTYSLSSTLTLSKADYEKHKVYACEVTHQGLSSPVTKSFNRGEC
TDCC EC50 (pM), HeLa target cells, E:T 10: 33 pM
